Legend:
Assay type in all cases: cell-based
R3/X4/R5 cells = assay: GFP expression in uninfected R3/X4/R5 cells treated with drug
HIVIIIB = assay: HIV drug susceptibility assay in R3/X4/R5 cells, GFP by flow cytometry, cell free HIVIIIB; conditions: for % GFP + CELLS: 48 hr
HIVJKNL43 = assay: HIV drug susceptibility assay in R3/X4/R5 cells, macrophage tropic virus; conditions: for % GFP + CELLS: no-drug control 33.1%

## Cc1cn([C@H]2C[C@H](N=[N+]=[N-])[C@@H](CO)O2)c(=O)[nH]c1=O [AZT, Zidovudine]
R3/X4/R5 cells; AZT 10 μM
  % GFP + CELLS: 0.1%
HIVIIIB; AZT 0.1 μM, no-drug control 29.6%
  % GFP + CELLS: 11.6%
HIVIIIB; AZT 1.0 μM, no-drug control 29.6%
  % GFP + CELLS: 8.3%
HIVJKNL43; AZT 0.1 μM
  % GFP + CELLS: 14.9%
HIVJKNL43; AZT 1.0 μM
  % GFP + CELLS: 17.1%
HIVJKNL43; AZT 10.0 μM
  % GFP + CELLS: 11.1%
HIVJKNL43; Human immunodeficiency virus 1, Macrophage
  IC50: 90 nM

## CC(C)CN(C[C@@H](O)[C@H](Cc1ccccc1)NC(=O)O[C@H]1CCOC1)S(=O)(=O)c1ccc(N)cc1 [Amprenavir]
R3/X4/R5 cells; AMP 1000 nM
  % GFP + CELLS: 0.1%
HIVIIIB; AMP 10 nM, no-drug control 46.3%
  % GFP + CELLS: 25.5%
HIVIIIB; AMP 100 nM, no-drug control 46.3%
  % GFP + CELLS: 1.1%
HIVIIIB; AMP 1000 nM, no-drug control 46.3%
  % GFP + CELLS: 0.1%

## O=C1Nc2ccc(Cl)cc2[C@@](C#CC2CC2)(C(F)(F)F)O1 [Efavirenz]
R3/X4/R5 cells; EFA 100 nM
  % GFP + CELLS: 0.2%
HIVIIIB; EFA 1 nM, no-drug control 35.0%
  % GFP + CELLS: 15.7%
HIVIIIB; EFA 1 nM, reduction in GFP expressing cells vs no drug
  % REDUCTION: 55.14%
HIVIIIB; EFA 10 nM, no-drug control 35.0%
  % GFP + CELLS: 4.3%
HIVIIIB; EFA 100 nM, no-drug control 35.0%
  % GFP + CELLS: 0.8%

From patent publication US20030181375A1, “Rapid phenotypic cell-based HIV assay” (priority 2002, published 2003)
